Data published in the supplement of paper PMC4967469.
A lower IC50 marks a more sensitive line; where the fit passes the top or lowest dose, that dose stands as a limit. AUC sums up the same curve from the lowest dose to the 256-fold higher top dose: 1 means no effect, lower means more sensitive. For some assays here: A top dose marked as inferred is not printed in the source and was worked back from the curve model.

Experiments:
Assay in all cases: Viability of human cancer cell lines after 72 h of drug (GDSC screen)
CP724714 = compound: COCC(=O)NC/C=C/c1ccc2ncnc(Nc3ccc(Oc4ccc(C)nc4)c(C)c3)c2c1 [CP724714]; conditions: top dose 10.24 µM; top dose inferred
Description: (§1)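 Human cancer cell lines in 384-well plates, medium with 10% serum, drug for 72 h over a 256-fold dose range (nine 2-fold or five 4-fold steps up to the top dose). Adherent lines were fixed and stained with the nucleic acid dye Syto60, suspension lines read with resazurin; signal relative to control wells, capped at 0 and 100%. One two-parameter sigmoid per drug and line, fitted in a mixed model over all curves with the slope shared within a line.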

CX-5461 = compound: Cc1cnc(CNC(=O)c2c(=O)c3ccc(N4CCCN(C)CC4)nc3n3c2sc2ccccc23)cn1 [CX-5461]; conditions: top dose 10.24 µM; top dose inferred
Description: as §1

Bortezomib = compound: CC(C)C[C@H](NC(=O)[C@H](Cc1ccccc1)NC(=O)c1cnccn1)B(O)O [Bortezomib]; conditions: top dose 0.02 µM
Description: as §1

STF-62247 = compound: Cc1cccc(Nc2nc(-c3ccncc3)cs2)c1 [STF-62247]; conditions: top dose 10.24 µM; top dose inferred
Description: as §1

Obatoclax mesylate = compound: COC1=CC(c2cc3ccccc3[nH]2)=N/C1=C\c1[nH]c(C)cc1C [Obatoclax mesylate]; conditions: top dose 16 µM
Description: as §1

Paclitaxel = compound: CC(=O)O[C@H]1C(=O)[C@@]2(C)[C@H]([C@H](OC(=O)c3ccccc3)[C@]3(O)C[C@H](OC(=O)[C@H](O)[C@@H](NC(=O)c4ccccc4)c4ccccc4)C(C)=C1C3(C)C)[C@]1(OC(C)=O)CO[C@@H]1C[C@@H]2O [Paclitaxel]; conditions: top dose 0.1024 µM
Description: as §1

NB-4 (acute myeloid leukaemia, suspension)
AUC (CP724714): 0.967 | IC50 (CP724714): > 10.2 µM | AUC (CX-5461): 0.47 | IC50 (CX-5461): 0.539 µM | AUC (Bortezomib): 0.712 | IC50 (Bortezomib): 0.00434 µM | AUC (STF-62247): 0.972 | IC50 (STF-62247): > 10.2 µM | AUC (Obatoclax mesylate): 0.07 | IC50 (Obatoclax mesylate): < 0.0625 µM

NCI-H23 (lung adenocarcinoma, adherent)
AUC (CP724714): 0.987 | IC50 (CP724714): > 10.2 µM | AUC (CX-5461): 0.977 | IC50 (CX-5461): > 10.2 µM | AUC (Bortezomib): 0.798 | IC50 (Bortezomib): 0.00941 µM | AUC (STF-62247): 0.983 | IC50 (STF-62247): > 10.2 µM | AUC (Obatoclax mesylate): 0.793 | IC50 (Obatoclax mesylate): 7.23 µM

NCI-H69 (small cell lung carcinoma, suspension)
AUC (CP724714): 0.981 | IC50 (CP724714): > 10.2 µM | AUC (CX-5461): 0.979 | IC50 (CX-5461): > 10.2 µM | AUC (Bortezomib): 0.543 | IC50 (Bortezomib): 0.00166 µM | AUC (STF-62247): 0.923 | IC50 (STF-62247): > 10.2 µM | AUC (Obatoclax mesylate): 0.673 | IC50 (Obatoclax mesylate): 3.22 µM

NCI-H82 (small cell lung carcinoma, suspension)
AUC (CP724714): 0.985 | IC50 (CP724714): > 10.2 µM | AUC (CX-5461): 0.93 | IC50 (CX-5461): > 10.2 µM | AUC (Bortezomib): 0.687 | IC50 (Bortezomib): 0.00405 µM | AUC (STF-62247): 0.983 | IC50 (STF-62247): > 10.2 µM | AUC (Obatoclax mesylate): 0.603 | IC50 (Obatoclax mesylate): 1.88 µM

NCI-H128 (small cell lung carcinoma, suspension)
AUC (Bortezomib): 0.884 | IC50 (Bortezomib): > 0.02 µM | AUC (Paclitaxel): 0.971 | IC50 (Paclitaxel): > 0.102 µM

NCI-H187 (small cell lung carcinoma, suspension)
AUC (CP724714): 0.985 | IC50 (CP724714): > 10.2 µM | AUC (CX-5461): 0.705 | IC50 (CX-5461): 2.56 µM | AUC (Bortezomib): 0.912 | IC50 (Bortezomib): > 0.02 µM | AUC (STF-62247): 0.983 | IC50 (STF-62247): > 10.2 µM | AUC (Obatoclax mesylate): 0.669 | IC50 (Obatoclax mesylate): 3.08 µM

NCI-H209 (small cell lung carcinoma, suspension)
AUC (CP724714): 0.968 | IC50 (CP724714): > 10.2 µM | AUC (CX-5461): 0.985 | IC50 (CX-5461): > 10.2 µM | AUC (Bortezomib): 0.854 | IC50 (Bortezomib): 0.0175 µM | AUC (STF-62247): 0.978 | IC50 (STF-62247): > 10.2 µM | AUC (Obatoclax mesylate): 0.692 | IC50 (Obatoclax mesylate): 3.61 µM

NCI-H446 (small cell lung carcinoma, semi-adherent)
AUC (CP724714): 0.985 | IC50 (CP724714): > 10.2 µM | AUC (CX-5461): 0.694 | IC50 (CX-5461): 2.35 µM | AUC (Bortezomib): 0.645 | IC50 (Bortezomib): 0.00326 µM | AUC (STF-62247): 0.984 | IC50 (STF-62247): > 10.2 µM | AUC (Obatoclax mesylate): 0.494 | IC50 (Obatoclax mesylate): 0.962 µM

NCI-H526 (small cell lung carcinoma, suspension)
AUC (CP724714): 0.978 | IC50 (CP724714): > 10.2 µM | AUC (CX-5461): 0.87 | IC50 (CX-5461): 8.84 µM | AUC (Bortezomib): 0.717 | IC50 (Bortezomib): 0.00497 µM | AUC (STF-62247): 0.974 | IC50 (STF-62247): > 10.2 µM | AUC (Obatoclax mesylate): 0.648 | IC50 (Obatoclax mesylate): 2.51 µM

NCI-H1299 (large cell lung carcinoma, adherent)
AUC (CP724714): 0.981 | IC50 (CP724714): > 10.2 µM | AUC (CX-5461): 0.981 | IC50 (CX-5461): > 10.2 µM | AUC (Bortezomib): 0.949 | IC50 (Bortezomib): > 0.02 µM | AUC (STF-62247): 0.981 | IC50 (STF-62247): > 10.2 µM | AUC (Obatoclax mesylate): 0.168 | IC50 (Obatoclax mesylate): 0.0732 µM

NCI-H1417 (small cell lung carcinoma, suspension)
AUC (CP724714): 0.919 | IC50 (CP724714): > 10.2 µM | AUC (CX-5461): 0.784 | IC50 (CX-5461): 5.25 µM | AUC (Bortezomib): 0.726 | IC50 (Bortezomib): 0.00631 µM | AUC (STF-62247): 0.973 | IC50 (STF-62247): > 10.2 µM | AUC (Obatoclax mesylate): 0.386 | IC50 (Obatoclax mesylate): 0.455 µM

NCI-H1876 (small cell lung carcinoma, adherent)
AUC (CP724714): 0.971 | IC50 (CP724714): > 10.2 µM | AUC (CX-5461): 0.762 | IC50 (CX-5461): 3.71 µM | AUC (Bortezomib): 0.83 | IC50 (Bortezomib): 0.0128 µM | AUC (STF-62247): 0.985 | IC50 (STF-62247): > 10.2 µM | AUC (Obatoclax mesylate): 0.68 | IC50 (Obatoclax mesylate): 3.2 µM

NCI-H2227 (small cell lung carcinoma, semi-adherent)
AUC (CP724714): 0.981 | IC50 (CP724714): > 10.2 µM | AUC (CX-5461): 0.895 | IC50 (CX-5461): > 10.2 µM | AUC (Bortezomib): 0.764 | IC50 (Bortezomib): 0.00817 µM | AUC (STF-62247): 0.986 | IC50 (STF-62247): > 10.2 µM | AUC (Obatoclax mesylate): 0.769 | IC50 (Obatoclax mesylate): 6.85 µM

RC-K8 (B-cell lymphoma, suspension)
AUC (CP724714): 0.993 | IC50 (CP724714): > 10.2 µM | AUC (CX-5461): 0.976 | IC50 (CX-5461): > 10.2 µM | AUC (Bortezomib): 0.692 | IC50 (Bortezomib): 0.00396 µM | AUC (STF-62247): 0.99 | IC50 (STF-62247): > 10.2 µM | AUC (Obatoclax mesylate): 0.494 | IC50 (Obatoclax mesylate): 0.964 µM

RKO (large intestine, adherent)
AUC (CP724714): 0.981 | IC50 (CP724714): > 10.2 µM | AUC (CX-5461): 0.512 | IC50 (CX-5461): 0.688 µM | AUC (Bortezomib): 0.453 | IC50 (Bortezomib): 0.00094 µM | AUC (STF-62247): 0.972 | IC50 (STF-62247): > 10.2 µM | AUC (Obatoclax mesylate): 0.048 | IC50 (Obatoclax mesylate): < 0.0625 µM

SK-MEL-2 (melanoma, adherent)
AUC (CP724714): 0.983 | IC50 (CP724714): > 10.2 µM | AUC (CX-5461): 0.978 | IC50 (CX-5461): > 10.2 µM | AUC (Bortezomib): 0.951 | IC50 (Bortezomib): > 0.02 µM | AUC (STF-62247): 0.987 | IC50 (STF-62247): > 10.2 µM | AUC (Obatoclax mesylate): 0.274 | IC50 (Obatoclax mesylate): 0.221 µM

SK-N-FI (neuroblastoma, adherent)
AUC (CP724714): 0.98 | IC50 (CP724714): > 10.2 µM | AUC (CX-5461): 0.99 | IC50 (CX-5461): > 10.2 µM | AUC (Bortezomib): 0.838 | IC50 (Bortezomib): 0.0133 µM | AUC (STF-62247): 0.977 | IC50 (STF-62247): > 10.2 µM | AUC (Obatoclax mesylate): 0.683 | IC50 (Obatoclax mesylate): 3.25 µM

SKM-1 (haematopoietic neoplasm, suspension)
AUC (Bortezomib): 0.929 | IC50 (Bortezomib): > 0.02 µM | AUC (Paclitaxel): 0.983 | IC50 (Paclitaxel): > 0.102 µM

SR (lymphoid neoplasm, suspension)
AUC (CP724714): 0.946 | IC50 (CP724714): > 10.2 µM | AUC (CX-5461): 0.21 | IC50 (CX-5461): 0.1 µM | AUC (Bortezomib): 0.566 | IC50 (Bortezomib): 0.00185 µM | AUC (STF-62247): 0.876 | IC50 (STF-62247): 8.4 µM | AUC (Obatoclax mesylate): 0.107 | IC50 (Obatoclax mesylate): 0.0632 µM

TC-YIK (cervix, suspension)
AUC (Bortezomib): 0.987 | IC50 (Bortezomib): > 0.02 µM

TK (B-cell lymphoma, suspension)
AUC (CP724714): 0.99 | IC50 (CP724714): > 10.2 µM | AUC (CX-5461): 0.933 | IC50 (CX-5461): > 10.2 µM | AUC (Bortezomib): 0.551 | IC50 (Bortezomib): 0.0017 µM | AUC (STF-62247): 0.983 | IC50 (STF-62247): > 10.2 µM | AUC (Obatoclax mesylate): 0.209 | IC50 (Obatoclax mesylate): 0.154 µM

U-87-MG (glioma, adherent)
AUC (CP724714): 0.984 | IC50 (CP724714): > 10.2 µM | AUC (CX-5461): 0.951 | IC50 (CX-5461): > 10.2 µM | AUC (Bortezomib): 0.848 | IC50 (Bortezomib): 0.0189 µM | AUC (STF-62247): 0.976 | IC50 (STF-62247): > 10.2 µM | AUC (Obatoclax mesylate): 0.641 | IC50 (Obatoclax mesylate): 2.65 µM

UACC-812 (breast, adherent)
AUC (CP724714): 0.947 | IC50 (CP724714): > 10.2 µM | AUC (CX-5461): 0.981 | IC50 (CX-5461): > 10.2 µM | AUC (Bortezomib): 0.84 | IC50 (Bortezomib): 0.0131 µM | AUC (STF-62247): 0.982 | IC50 (STF-62247): > 10.2 µM | AUC (Obatoclax mesylate): 0.866 | IC50 (Obatoclax mesylate): 13.4 µM

VAL (B-cell lymphoma, suspension)
AUC (CP724714): 0.976 | IC50 (CP724714): > 10.2 µM | AUC (CX-5461): 0.741 | IC50 (CX-5461): 3.14 µM | AUC (Bortezomib): 0.447 | IC50 (Bortezomib): 0.000897 µM | AUC (STF-62247): 0.915 | IC50 (STF-62247): > 10.2 µM | AUC (Obatoclax mesylate): 0.161 | IC50 (Obatoclax mesylate): 0.0913 µM

WSU-NHL (lymphoid neoplasm, suspension)
AUC (CP724714): 0.99 | IC50 (CP724714): > 10.2 µM | AUC (CX-5461): 0.938 | IC50 (CX-5461): > 10.2 µM | AUC (Paclitaxel): 0.99 | IC50 (Paclitaxel): > 0.102 µM | AUC (STF-62247): 0.981 | IC50 (STF-62247): > 10.2 µM | AUC (Obatoclax mesylate): 0.1 | IC50 (Obatoclax mesylate): < 0.0625 µM
